According to PubChem BioAssay AID686979 (National Center for Advancing Translational Sciences (NCATS), 2013):
Hit rate of the full screen: of about 420,000 compounds, about 50,000 (12%) were called active. The inconclusive results got no clear call from the source; some entries with a clear call stand among them for comparison. Calls come from the whole dose curve; as a rule, active = well fitted inhibition curve with a large enough effect; inconclusive = small, poorly fitted or top-dose-only effect; inactive = flat fitted curve, though single readings scatter. No potency is given beside an inconclusive call; the fits are too rough.

Assay: qHTS for Inhibitors of human tyrosyl-DNA phosphodiesterase 1 (TDP1): qHTS in cells in presence of CPT; note: nearly all actives have a fitted effect of over 55% in size
Settings: chicken DT40 Tdp1-/-;hTDP1 cells + 20 nM CPT, ATP luminescence, 48 h; activity change, negative = growth inhibition: at 46.2 µM (top of the series)
How it was run: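 Cell growth measured by CellTiter-Glo luminescence after a minimum 48 h, 37 C compound exposure with 20 nM CPT in Tdp1-knockout DT40 cells stably expressing hTDP1, seeded 400/well; qHTS titration format.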
% is set by controls: 0 for no effect and ±100 for the full control effect; potency is the fitted concentration of half-maximal effect; tags give direction and shape of the fitted curve.

Row | SMILES | Potency | activity change, negative = growth inhibition
1 | COc1ccc(NC(=O)C2Cc3c(-c4ccc(NC(C)=O)cc4)ccnc3O2)cc1OC (stereo not given) | inconclusive [inhibitor, single point] | –
2 | Fc1ccc(-n2ncc3c(Nc4ccc(Oc5ccc(Cl)cc5)cc4)ncnc32)cc1 | inconclusive [inhibitor, full curve] | –
3 | Cn1c(=O)[nH]c(=O)c2c1nc(CN1CCN(c3cccc(Cl)c3)CC1)n2CCc1ccccc1 | inconclusive [inhibitor, partial curve, poor fit] | –
4 | Nc1cccc(Nc2ncnc3ccccc23)c1 | inactive | –
5 | CCN(CC)C(=O)Oc1ccc2c(=O)c(-c3ccccc3)coc2c1 | – | inconclusive: -33.4% [inhibitor]
6 | CN(c1ccccc1)S(=O)(=O)c1cccc(NC(=O)CN2C(=O)NC3(CCCC3)C2=O)c1 | inconclusive [inhibitor, single point] | –
7 | COc1ccc(C(=O)NCCc2nnc(SCC(=O)Nc3ccccc3F)n2C)cc1 | inactive | –
8 | CC1=C(c2ccc(Cl)cc2)S(=O)(=O)N=C1N1CCN(c2cccc(C)c2)C(C)C1 (stereo not given) | active: 5.17 µM | –
9 | COc1cccc(NC(=O)CN(C)C(=O)c2ccc3c(c2)CC(c2ccccc2)OC3=O)c1 (stereo not given) | inconclusive [inhibitor, single point] | –
10 | CCOc1ccc2nc(N3CCCCCC3)sc2c1 | inactive | –
11 | Cc1cc(C)c(S(=O)(=O)N2CCOCC2)c(C)c1N(C)S(=O)(=O)c1ccccc1 | inactive | –
12 | C[C@@H]1CN(Cc2ccc3c(c2)CN(C(=O)CN2CCOc4ccccc4C2)CCO3)C[C@H](C)O1 | – | inactive: -3.91% [at 9.04 µM]
13 | COCc1nnc(NC(=O)c2c(-c3c(Cl)cccc3Cl)noc2C)s1 | active: 13 µM | –
14 | O=C1CC(c2ccc(Cl)cc2)SC(N(c2ccccc2)c2ccccc2)=N1 (stereo not given) | inconclusive [inhibitor, single point] | –
15 | Cc1ccc(N2CC(c3nnc(Cc4ccc(F)cc4Cl)o3)CC2=O)cc1 (stereo not given) | inconclusive [inhibitor, single point] | –
16 | Cc1cc(-c2ccc(NC(=O)[C@@H]3CCCC[C@@H]3C(=O)O)c(C)c2)ccc1NC(=O)[C@@H]1CCCC[C@@H]1C(=O)O | inconclusive [inhibitor, single point] | –
17 | CCCCNC(=O)c1ccc(-c2nc(CS(=O)(=O)c3ccc(C)cc3)c(C)o2)cc1 | inconclusive [inhibitor, single point] | –
18 | Cc1cccc(CSC2=NCCN2C(=O)c2ccc(S(=O)(=O)N(C)C)cc2)c1 | inconclusive [inhibitor, single point] | –
19 | N#Cc1sc2nc(-c3cccs3)cc(-c3ccc(F)cc3)c2c1N | inactive | –
20 | Cc1ccc(NC(=O)N2CCCc3ccccc32)cc1C | inactive | –
21 | C=CCc1ccccc1OCC(O)CN1CCN(c2ccc(OC)cc2)CC1 (stereo not given) | active: 16.4 µM | –
22 | COc1cc(/C=C2/C(=N)N3C=CSC3=NC2=O)ccc1OCCCOc1cc(C)ccc1C | inconclusive [inhibitor, single point] | –
23 | COc1cccc(OC)c1C(=O)Nn1c(-c2cccc(C)c2)nc2ccccc2c1=O | inconclusive [inhibitor, single point] | –

Row | SMILES | Potency | activity change, negative = growth inhibition
24 | O=[N+]([O-])c1cccc(-c2nc(-c3cccs3)c(-c3cccs3)[nH]2)c1 | active: 20.6 µM | –
25 | CCN1Cc2cccc(C(=O)Nc3ccc(F)cc3)c2C1=O | inactive | –
26 | CCOC(=O)c1ccc(NC(=O)Cn2nnc(-c3ccc(C(F)(F)F)cc3)n2)cc1 | – | inconclusive: -32.8% [inhibitor]
27 | O=C1CCCN1c1ccc(S(=O)(=O)NCCOc2ccccc2)cc1 | inconclusive [inhibitor, partial curve] | –
28 | Cc1ccc(-c2csc(=Nc3ccccc3)n2CCCO)cc1 | active: 16.4 µM | –
29 | CC(=O)c1ccc(N2CCN(C(=O)c3ccco3)C(C)C2)c(F)c1 (stereo not given) | inconclusive [inhibitor, single point] | –
30 | O=C(/C=C/c1ccc2ccccc2c1)c1ccoc1 | – | inconclusive: -36.6% [inhibitor]
31 | CCOc1ccc(C(=O)CCC(=O)N2CCN(S(=O)(=O)c3cccc(F)c3)CC2)cc1 | inconclusive [inhibitor, single point] | –
32 | O=C(CC(=O)Nc1ccc(Cl)cc1)N/N=C\c1cccc(F)c1 | inactive | –
33 | Cc1c(CN2CCC(C(=O)Nc3ccc(Oc4ccccc4)nc3)CC2)cnn1C | inactive | –
34 | N#C/C(=C\c1ccc(O)c(O)c1)C(=O)N1CCCC1 | inconclusive [inhibitor, single point] | –
35 | CC(C)C[C@@H](CN)NC(=O)c1nc[nH]c1C(=O)N[C@@H](C)C(=O)CNC[C@H](C)NC(=O)c1nc[nH]c1C(=O)N[C@@H](CC(C)C)C(=O)O | inactive | –
36 | O=C(Cn1nnc(-c2ccccc2)n1)NCC(=O)Nc1ccc(F)c(F)c1F | inactive | –
37 | Cc1nn(Cc2ccccc2Cl)c(Cl)c1C(=O)NCCc1ccccc1 | inconclusive [inhibitor, single point] | –
38 | CCC1CN(CCNC(=O)c2ccnc(Cl)c2)Cc2cc(OC)ccc2O1 (stereo not given) | inconclusive [inhibitor, full curve] | –
39 | O=C(N/N=C/c1ccco1)c1cccc(NC(=O)c2cccc(Cl)c2)c1 | inconclusive [inhibitor, single point] | –
40 | COC(=O)[C@@]12CCCCN1[C@H](c1ccc(-c3ccc4c(c3)OCO4)c(OC)c1)[C@@H]1C(=O)N(C)C(=O)[C@@H]12 | inconclusive [inhibitor, single point] | –
41 | CC1CCCCC1NC(=O)COC(=O)COc1ccccc1F (stereo not given) | inactive | –
42 | O=C(NCc1ccc(F)cc1)C1CCCN1S(=O)(=O)c1ccccc1C(F)(F)F (stereo not given) | active: 13 µM | –
43 | Cc1ccc2c(CN3CCOCC3)cc(=O)oc2c1C | inactive | –
44 | Cc1ccccc1C(=O)NC(=S)N(Cc1ccccc1)c1ccccn1 | inconclusive [inhibitor, single point] | –
45 | COCCNC(=O)/C(C#N)=C1\N=C(NC(=O)c2ccco2)c2ccccc21 | inconclusive [inhibitor, partial curve, poor fit] | –
